The values below come from patent EP1780277A1 (YEDA RESEARCH AND DEVELOPMENT COMPANY, LTD., dated 2007).

The assay deals with T1, flag-IR1B4 fusion protein, [35S]methionine-labeled in vitro translation product (human, UniProt Q99873, 35S-methionine label).
T1 construct: Translated in rabbit reticulocyte lysate; for one co-precipitation expressed in Cos-7 cells; also called IR1B4-flag; IRIB4-flag
Nature of the assay: GST pull-down of 35S-labeled in vitro translated protein, SDS-PAGE.

B1: GST alone (other)
chain: not shown
notes: Control held on glutathione beads; also called Glutathione S-transferase
For the molecule B1, the binding result is on record as “no binding”.
